According to the supplement of paper PMC8728848:
This is one part of the list.

How the values were obtained:
Assay in all cases: glycan array binding signal (z-score within array); higher = stronger binding
Conditions in all cases: glycan notation: IUPAC condensed, linker removed; mutation: R343K
[1] = biological target: Fuc(a1-3)[GalNAc(b1-4)]GlcNAc
Outline: (§1)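 Glycan array data were curated from 3228 arrays in the Consortium for Functional Glycomics database and kept only where the protein sequence was available. Glycan names were converted to IUPAC-condensed notation, and columns mapping to the same glycan were averaged. The binding signal is a within-array Z-score, averaged across arrays of the same protein sequence at different concentrations or buffers and across linkers. Negative Z-scores can be read as non-binding.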

Fuc(a1-4)GlcNAc = biological target: Fuc(a1-4)GlcNAc
Outline: as §1

Fuc(b1-3)GlcNAc = biological target: Fuc(b1-3)GlcNAc
Outline: as §1

Gal(a1-2)Gal = biological target: Gal(a1-2)Gal
Outline: as §1

Gal(a1-3)Gal = biological target: Gal(a1-3)Gal
Outline: as §1

Gal(a1-3)Gal(b1-3)GlcNAc = biological target: Gal(a1-3)Gal(b1-3)GlcNAc
Outline: as §1

Gal(a1-3)Gal(b1-4)Glc = biological target: Gal(a1-3)Gal(b1-4)Glc
Outline: as §1

Gal(a1-3)Gal(b1-4)GlcNAc = biological target: Gal(a1-3)Gal(b1-4)GlcNAc
Outline: as §1

[2] = biological target: Gal(a1-3)Gal(b1-4)[Fuc(a1-3)]GlcNAc
Outline: as §1

Gal(a1-3)GalNAc = biological target: Gal(a1-3)GalNAc
Outline: as §1

[3] = biological target: Gal(a1-3)[Gal(a1-4)]Gal(b1-4)GlcNAc
Outline: as §1

Gal(a1-4)Gal(b1-4)Glc = biological target: Gal(a1-4)Gal(b1-4)Glc
Outline: as §1

Gal(a1-4)Gal(b1-4)GlcNAc = biological target: Gal(a1-4)Gal(b1-4)GlcNAc
Outline: as §1

Gal(a1-4)GlcNAc = biological target: Gal(a1-4)GlcNAc
Outline: as §1

Gal(a1-6)Glc = biological target: Gal(a1-6)Glc
Outline: as §1

Gal(b1-2)Gal = biological target: Gal(b1-2)Gal
Outline: as §1

Gal(b1-3)Gal = biological target: Gal(b1-3)Gal
Outline: as §1

Gal(b1-3)Gal(b1-4)GlcNAc = biological target: Gal(b1-3)Gal(b1-4)GlcNAc
Outline: as §1

Gal(b1-3)GalNAc = biological target: Gal(b1-3)GalNAc
Outline: as §1

[4] = biological target: Gal(b1-3)GalNAc(b1-3)Gal(a1-4)Gal(b1-4)Glc
Outline: as §1

[5] = biological target: Gal(b1-3)GalNAc(b1-4)Gal(b1-4)Glc
Outline: as §1

[6] = biological target: Gal(b1-3)GalNAc(b1-4)[Neu5Ac(a2-3)]Gal(b1-4)Glc
Outline: as §1

Gal(b1-3)GlcNAc = biological target: Gal(b1-3)GlcNAc
Outline: as §1

[7] = biological target: Gal(b1-3)GlcNAc(b1-2)Man(a1-3)[Gal(b1-3)GlcNAc(b1-2)Man(a1-6)]Man(b1-4)GlcNAc(b1-4)GlcNAc
Outline: as §1

[8] = biological target: Gal(b1-3)GlcNAc(b1-3)Gal(b1-3)GlcNAc
Outline: as §1

[9] = biological target: Gal(b1-3)GlcNAc(b1-3)Gal(b1-4)Glc
Outline: as §1

[10] = biological target: Gal(b1-3)GlcNAc(b1-3)Gal(b1-4)GlcNAc
Outline: as §1

[11] = biological target: Gal(b1-3)[Fuc(a1-4)]GlcNAc
Outline: as §1

[12] = biological target: Gal(b1-3)[Fuc(a1-4)]GlcNAc(b1-3)Gal(b1-3)[Fuc(a1-4)]GlcNAc
Outline: as §1

[13] = biological target: Gal(b1-3)[Fuc(a1-4)]GlcNAc(b1-3)Gal(b1-4)GlcNAc
Outline: as §1

[14] = biological target: Gal(b1-3)[Fuc(a1-4)]GlcNAc(b1-3)Gal(b1-4)[Fuc(a1-3)]GlcNAc
Outline: as §1

[15] = biological target: Gal(b1-3)[GlcNAc(b1-6)]GalNAc
Outline: as §1

[16] = biological target: Gal(b1-3)[Neu5Ac(a2-6)]GalNAc
Outline: as §1

[17] = biological target: Gal(b1-3)[Neu5Ac(a2-6)]GlcNAc(b1-6)Gal(b1-4)Glc
Outline: as §1

[18] = biological target: Gal(b1-3)[Neu5Ac(b2-6)]GalNAc
Outline: as §1

[19] = biological target: Gal(b1-4)GalNAc(a1-3)[Fuc(a1-2)]Gal(b1-4)GlcNAc
Outline: as §1

[20] = biological target: Gal(b1-4)GalNAc(b1-3)[Fuc(a1-2)]Gal(b1-4)GlcNAc
Outline: as §1

Gal(b1-4)Glc = biological target: Gal(b1-4)Glc
Outline: as §1

Gal(b1-4)Glc6S = biological target: Gal(b1-4)Glc6S
Outline: as §1

Gal(b1-4)GlcNAc = biological target: Gal(b1-4)GlcNAc
Outline: as §1

[21] = biological target: Gal(b1-4)GlcNAc(a1-6)Gal(b1-4)GlcNAc
Outline: as §1

[22] = biological target: Gal(b1-4)GlcNAc(b1-2)Man(a1-3)[Gal(b1-4)GlcNAc(b1-2)Man(a1-6)]Man(b1-4)GlcNAc(b1-4)GlcNAc
Outline: as §1

[23] = biological target: Gal(b1-4)GlcNAc(b1-3)Gal(b1-3)GlcNAc
Outline: as §1

[24] = biological target: Gal(b1-4)GlcNAc(b1-3)Gal(b1-4)Glc
Outline: as §1

[25] = biological target: Gal(b1-4)GlcNAc(b1-3)Gal(b1-4)GlcNAc
Outline: as §1

B1: Surfactant Protein D (Human); Neck + Carbohydrate Recognition Domain (NCRD) (Homo sapiens) (protein)
chain: MLLFLLSALVLLTQPLGYLEAEMKTYSHRTMPSACTLVMCSSVESGLPGRDRDGREGPRGEKGDPGLPGAAGQAGMPGQAGPVGPKGDNGSVGEPGPKGDTGPSGPPGPPGVPGPAGREGALGKQGNIGPQGKPGPKGEAGPKGEVGAPGMQGSAGARGLAGPKGERGVPGERGVPGNTGAAGSAGAMGPQGSPGARGPPGLKGDKGIPGDKGAKGESGLPDVASLRQQVEALQGQVQHLQAAFSQYKKVELFPNGQSVGEKIFKTAQFVKPFTEAQLLCTQAGGQLASPRSAAENAALQQLVVAKNEAAFLSMTDSKTEGKFTYPTGESLVYSNWAPGEPNDDGGSEDCVEIFTNGKWNDKACGEKRLVVCEF
- glycan array binding signal (z-score) [1]: -0.151
- glycan array binding signal (z-score) (Fuc(a1-4)GlcNAc): -0.143
- glycan array binding signal (z-score) (Fuc(b1-3)GlcNAc): -0.154
- glycan array binding signal (z-score) (Gal(a1-2)Gal): -0.149
- glycan array binding signal (z-score) (Gal(a1-3)Gal): -0.149
- glycan array binding signal (z-score) (Gal(a1-3)Gal(b1-3)GlcNAc): -0.157
- glycan array binding signal (z-score) (Gal(a1-3)Gal(b1-4)Glc): -0.151
- glycan array binding signal (z-score) (Gal(a1-3)Gal(b1-4)GlcNAc): -0.154
- glycan array binding signal (z-score) [2]: -0.146
- glycan array binding signal (z-score) (Gal(a1-3)GalNAc): -0.149
- glycan array binding signal (z-score) [3]: -0.14
- glycan array binding signal (z-score) (Gal(a1-4)Gal(b1-4)Glc): -0.153
- glycan array binding signal (z-score) (Gal(a1-4)Gal(b1-4)GlcNAc): -0.154
- glycan array binding signal (z-score) (Gal(a1-4)GlcNAc): -0.14
- glycan array binding signal (z-score) (Gal(a1-6)Glc): -0.151
- glycan array binding signal (z-score) (Gal(b1-2)Gal): -0.155
- glycan array binding signal (z-score) (Gal(b1-3)Gal): -0.156
- glycan array binding signal (z-score) (Gal(b1-3)Gal(b1-4)GlcNAc): -0.146
- glycan array binding signal (z-score) (Gal(b1-3)GalNAc): -0.152
- glycan array binding signal (z-score) [4]: -0.147
- glycan array binding signal (z-score) [5]: -0.152
- glycan array binding signal (z-score) [6]: -0.147
- glycan array binding signal (z-score) (Gal(b1-3)GlcNAc): -0.147
- glycan array binding signal (z-score) [7]: -0.152
- glycan array binding signal (z-score) [8]: -0.148
- glycan array binding signal (z-score) [9]: -0.157
- glycan array binding signal (z-score) [10]: -0.153
- glycan array binding signal (z-score) [11]: -0.154
- glycan array binding signal (z-score) [12]: -0.152
- glycan array binding signal (z-score) [13]: -0.14
- glycan array binding signal (z-score) [14]: -0.13
- glycan array binding signal (z-score) [15]: -0.153
- glycan array binding signal (z-score) [16]: -0.159
- glycan array binding signal (z-score) [17]: -0.152
- glycan array binding signal (z-score) [18]: -0.146
- glycan array binding signal (z-score) [19]: -0.145
- glycan array binding signal (z-score) [20]: -0.15
- glycan array binding signal (z-score) (Gal(b1-4)Glc): -0.153
- glycan array binding signal (z-score) (Gal(b1-4)Glc6S): -0.148
- glycan array binding signal (z-score) (Gal(b1-4)GlcNAc): -0.146
- glycan array binding signal (z-score) [21]: -0.153
- glycan array binding signal (z-score) [22]: -0.149
- glycan array binding signal (z-score) [23]: -0.154
- glycan array binding signal (z-score) [24]: -0.154
- glycan array binding signal (z-score) [25]: -0.155
